B1: murine PD-L1 expressed on transfected cells (ligand)
chain: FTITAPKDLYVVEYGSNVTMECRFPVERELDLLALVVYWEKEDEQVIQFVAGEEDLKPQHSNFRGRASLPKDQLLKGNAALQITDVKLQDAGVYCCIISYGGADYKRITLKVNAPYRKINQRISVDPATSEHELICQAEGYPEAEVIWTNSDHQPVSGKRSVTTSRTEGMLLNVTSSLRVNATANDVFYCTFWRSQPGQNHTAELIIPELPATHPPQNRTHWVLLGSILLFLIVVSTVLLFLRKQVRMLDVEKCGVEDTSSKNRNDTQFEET
notes: also called mouse PD-L1; mPD-L1
B2: human CTLA4-Fc (human Ig gamma 1) (Fc fusion)
chain: not shown
notes: also called CTLA4-Ig; hCTLA4

How the values were obtained:
[1] = target: B2; experiment: flow cytometry on CHO-mB7-4 cells
[2] = target: T1, human PD-L1.Ig (extracellular region of human PD-L1 fused to hinge-CH2-CH3 of murine Ig gamma 2a) (human; murine, UniProt P01863 98-330 = IgG part, limits assumed); experiment: BIACORE, hCTLA-4.Ig immobilised, soluble human PD-L1.Ig injected
T1 construct: domain: hinge-CH2-CH3; also called PD-L1-Fc; hPD-L1.Fc

binding result [1]	binding result [2]	Binder
no binding	–	B1
–	no binding	B2
